Experimental findings from the supplement of paper PMC11417369 are described below.

This is one part of the list.

The test system of this test is PfSIP2 AP2 domain 1 (GST-tagged). Description: gcPBM binding intensity (ln(normalized median fluorescence intensity)); higher = stronger DNA binding. In a few lines:
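GST-tagged P. falciparum DNA-binding domains, expressed in E. coli (about 25 μg on average), were applied for 1 h to an Agilent 4 × 180k array of primer-extended double-stranded 36-bp intergenic genomic probes plus negative controls. The binding buffer was 1× PBS with 1% milk, 0.2 mg/ml BSA, 0.5% salmon testes DNA and 0.03% Triton X-100. Bound protein was detected with Alexa488 anti-GST antibody and scanned at 488 nm. Binding intensity is the highest Masliner-normalised natural-log median intensity across replicate spots of either probe orientation.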
As for “AATTAAAATAGTAATACACACTTCATAGGAAATGAT [CACACA_site5045]”, the “gcPBM binding intensity (ln)” value was 6.87.
As to “TATGTATCAAATAAATGTACATATATATATATATAT [XGTACX_site2189]”, the “gcPBM binding intensity (ln)” value was 9.1.
On to “AAATTTTTTATGAACACACAAATACACGCACTCAAA [CACACA_site7286]”, for which the “gcPBM binding intensity (ln)” value is 8.57.
As to “AATAATAAAATAAAGGCATGCACAATATGCTATAAA [TGCATGCA_site645]”, the “gcPBM binding intensity (ln)” value amounted to 7.49.
Take “TAAAATATATAAAACTGTACATTTTAAAGGCACAAC [XGTACX_site8342]”: the “gcPBM binding intensity (ln)” value was found to be 7.55.
Take TAAAATTAATTTCTGTTGCACTTATTATTAATTAAC: the “gcPBM binding intensity (ln)” value stood at 7.92.
On to “TTTTTTTTTTTTTGCACACACCATATTTATAGAAAT [CACACA_site5772]”, for which the “gcPBM binding intensity (ln)” value worked out at 7.71.
Take “ATATTATACCCGTGTACACATTATAACCATATATAA [CACACA_site5933]”: the “gcPBM binding intensity (ln)” value came out at 7.73.
Turning to “TATATGTATAGAAAATGTACATATAAATATATATAT [XGTACX_site3420]”, the “gcPBM binding intensity (ln)” value turned out to be 8.36.
On to “GTCATATTAATATGTACACACATATTTATATTTATA [CACACA_site6798]”, for which the “gcPBM binding intensity (ln)” value was 7.08.
Consider “TTTTTACTATTTATATGACTAAAAATATATTGAATA [CACACA_negctrl_site188]”, for which the “gcPBM binding intensity (ln)” value amounted to 6.94.
In the case of TAAATTAATAAACAAGTGCATATATATATATATATA, the “gcPBM binding intensity (ln)” value was 9.66.
With “CAAGCACACGGACACACACACACACGCGCACGCACA [CACACA_site6307]”, the “gcPBM binding intensity (ln)” value was 8.65.
The result for “TTTTATGTAACATCACGTACTTATATTTAAGTATTC [XGTACX_site7459]” reads 7.19; that for “CAATTTATTTTTATTACACACTATCCAAGTAATTTC [CACACA_site7402]”, 6.84; that for “AAATATATCATACAAAGTACTTGGAATTAATATATA [XGTACX_site8907]”, 6.82.
For the sequence “AATATAATATAATGCACACATAAAACAAAAAAAAAA [CACACA_site3012]”, the “gcPBM binding intensity (ln)” value was 7.4.
As for “TAATTTTTCCAACTTTGTACAGATATATTAATAAAA [XGTACX_site7856]”, the “gcPBM binding intensity (ln)” value came to 7.07.
The same measure for “GTTGATACATGAAGCTGTACATAATATTTGTCATTT [XGTACX_site8628]”: 7.35.
For “TCTTTTAAATAACAACATAAATAAATAAATAAATAA [GTGCAC_negctrl_site319]”, the “gcPBM binding intensity (ln)” value worked out at 7.36.
The result for “ACATACAAGAATTAAACACACACAAAATATAAATTC [CACACA_site8985]” reads 6.85; that for “TCTTGTATATACAGTAGTACTAAAAATTATTAAATA [XGTACX_site7896]”, 7.15; that for “TTATGTTGTAAATGCACACATACAAATACAGATACA [CACACA_site4876]”, 7.46.
Take “GAAAACAAATATGTAGCACACATTCACATAATATAT [CACACA_site8731]”: the “gcPBM binding intensity (ln)” value was 7.14.
Consider “ATTATAATGGTAAAGTGTACAAATTTTTATTACACC [XGTACX_site5274]”, for which the “gcPBM binding intensity (ln)” value was determined as 7.15.
As to “ATAAATATAAAAATTTGTACATATATAGGTATAGGT [XGTACX_site1735]”, the “gcPBM binding intensity (ln)” value is 7.44.
The same measure for “CATTATTTACCGCCGTGTACGTAATGAGAAATTAAA [XGTACX_site4662]”: 6.91.
Consider “TTATTTCAAATTAATTTACACACTTCATACTAAAAG [CACACA_site9039]”, for which the “gcPBM binding intensity (ln)” value is 7.18.
For the sequence “TAATAAAAAAAGTGCACACACATAATATTTATATAT [CACACA_site7548]”, the “gcPBM binding intensity (ln)” value came out at 10.7.
“TTTATTTATTATTAAAGTACTAAATTACATTATTAT [XGTACX_site6624]”: the “gcPBM binding intensity (ln)” value was 6.93.
On to “TATTTAATTACATGAACACACATTAGATATTTTTAA [CACACA_site7405]”, for which the “gcPBM binding intensity (ln)” value amounted to 6.86.
As to “TAATTTCTTATGTATTGTACATATAATATATGATAT [XGTACX_site4898]”, the “gcPBM binding intensity (ln)” value was 6.92.
For the sequence “AAAATAAATAGATAAGCACACAAGCATATAGACATA [CACACA_site7958]”, the “gcPBM binding intensity (ln)” value is 6.67.
As for “AATATATTTATGCTCATGCACTTTTTTTTTTTTTTT [GTGCAC_site9654]”, the “gcPBM binding intensity (ln)” value came out at 8.89.
With “TATATTTACATTGTAACACACATGAAATATTTATAT [CACACA_site6178]”, the “gcPBM binding intensity (ln)” value came to 6.91.
The result for “AGAATAAAAAGGAACACACACACACCCATATATATA [CACACA_site3590]” reads 7.49; that for “TATGTTATATTATAAGGATAAATTTTGATTATATAA [TGCATGCA_negctrl_site600]”, 6.86; that for “ATGTACATTTTTTTCACACATACATTAATTTATGAG [CACACA_site5801]”, 7.17.
“TAGACTAATCCCAAAAGTACAGAAAAATTATATTAT [XGTACX_site8663]”: the “gcPBM binding intensity (ln)” value turned out to be 7.09.
For the sequence “TATCAATATTAAAAAGTGCAAAATAAAATATAAAAT [GTGCAC_site9486]”, the “gcPBM binding intensity (ln)” value was 8.09.
The same measure for “TATATTATATATTGGGGTACATATATATAAATATAA [XGTACX_site2296]”: 7.14; for “TTATTAAATTTTTTTTGTACTTATATATATATATAT [XGTACX_site2443]”: 8.9; for “TATGAATGTATATGTTGTACATATAAATATTTATAT [XGTACX_site1146]”: 7.
Consider “ATTATTATATAGTGTGCATGCAATATTAATAAAACC [TGCATGCA_site245]”, for which the “gcPBM binding intensity (ln)” value stood at 8.5.
